From PubChem BioAssay AID686978 (National Center for Advancing Translational Sciences (NCATS), 2013)
Hit rate of the full screen: of about 420,000 compounds, about 64,000 (15%) were called active. The inconclusive results got no clear call from the source; some entries with a clear call stand among them for comparison. The call rests on the fitted dose curve; in most records, active means well fitted inhibition curve with a large enough effect; inconclusive means small, poorly fitted or top-dose-only effect; inactive means flat fitted curve, though single readings scatter. Potencies of inconclusive entries are left out as doubtful fits.

test: qHTS for Inhibitors of human tyrosyl-DNA phosphodiesterase 1 (TDP1): qHTS in cells in absence of CPT; conditions: DT40 Tdp1-/- hTDP1 cells, no CPT, ATP luminescence, 48 h; activity change, negative = growth inhibition: at 46.2 µM (top of the series) unless noted; further: nearly all actives have a fitted effect of over 55% in size
Procedure, shortened: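 Cells were dispensed at 400 per well, compounds added by pin tool, plates incubated ≥48 hr at 37 °C, then CellTiter-Glo added for 30 min at room temperature before luminescence reading. Line: DT40 Tdp1-/- complemented with hTDP1; camptothecin omitted.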
On the % scale 0 is the no-effect control and ±100 the full control effect; potency means the concentration at half of the fitted maximal effect; tags describe the fitted curve by direction and shape.

Structure (SMILES)	Potency	activity change, negative = growth inhibition
CCOC(=O)c1ccc(NC(=O)N2CCN(CCc3ccccc3)CC2)cc1	inconclusive [inhibitor, single point]	
COc1cccc(-c2nc(CS(=O)(=O)CC(=O)NCCc3ccc(OC)c(OC)c3)c(C)o2)c1		inconclusive: -33.9% [inhibitor]
Cc1ccc(C(=O)Nc2nc(-c3nnn(-c4cccc(Cl)c4C)c3C)ns2)cc1C	active: 18.4 µM	
CC1=C(C(=O)Nc2ccccc2C)C(c2ccc(C)o2)N2C(=O)CSC2=N1 (stereo unspecified)	inconclusive [inhibitor, single point]	
Cc1cccc(C(=O)Nc2cccc(C(=O)N3CCOCC3)c2)c1	inactive	
CCOc1ccc(-c2nc(CSc3nnc(N)s3)cs2)cc1		inconclusive: -34% [inhibitor]
COc1ccccc1N1C(=O)CC(Sc2nccc(C)n2)C1=O (stereo unspecified)	inactive	
CCC(Cc1ccccc1)NC(=O)/C=C/c1ccco1 (stereo unspecified)	inconclusive [inhibitor, single point]	
CC(=O)n1cc([C@@H]2C=C(C(=O)NCc3ccccc3)O[C@H](OCCCCO)C2)c2ccccc21	active: 18.4 µM	
Cc1ccc(S(=O)(=O)N(CC(=O)N2CCN(c3ccccc3F)CC2)C2CCCCC2)cc1	inconclusive [inhibitor, single point]	
NS(=O)(=O)c1ccc(CCNC(=O)CCCn2c(SCC(=O)N3CCCC3)nc3ccsc3c2=O)cc1	inconclusive [inhibitor, full curve, poor fit]	
COC(=O)Nc1ccc(Cc2ccncc2)cc1	inactive	
COc1ccc(CN2CCNC(=O)C2CC(=O)N(C)CCC2CCOCC2)c(OC)c1 (stereo unspecified)	inactive	
Cc1cc(-c2nn3c(-c4ccccc4)nnc3s2)c2ccccc2n1	active: 18.4 µM	
COc1ccc(NC(=O)c2oc3c(c2C)-c2nn(Cc4ccccc4Cl)cc2CC3)cc1OC	active: 20.6 µM	
C=Cc1ccc(CSc2nnc(C)n3c2cc2occc23)cc1	inconclusive [inhibitor, single point]	
COCc1ccc(C(=O)N(C)CC2CCCN(CCc3ccccc3F)C2)o1 (stereo unspecified)	inactive	
O=C(CN(C(=O)c1ccccc1Cl)N1C(=O)C2C3C=CC(C3)C2C1=O)c1cccs1 (stereo unspecified)	inactive	
CC1(C(=O)NS(=O)(=O)C2CC2)CCCN(C(=O)Cc2ccc3ccccc3c2)C1 (stereo unspecified)	active: 10.3 µM	
Cc1onc(-c2c(F)cccc2Cl)c1C(=O)OCC(=O)c1c(N)n(C)c(=O)n(C)c1=O	inconclusive [inhibitor, single point]	
COc1ccc(NS(=O)(=O)c2ccc3c(c2)CC(C)N3C(C)=O)c(OC)c1 (stereo unspecified)	active: 20.6 µM	
Cn1c(=O)c2c(n3ncnc13)NC(=O)CC2c1cccc(F)c1 (stereo unspecified)	inactive	
CC(=NCCCn1ccnc1)c1c(-c2ccccc2)[nH]n(-c2nc3ccccc3s2)c1=O	inconclusive [inhibitor, partial curve]	
CCCOC(=O)c1cccc(Nc2nc(C(=O)OCC)nc3ccccc23)c1	active: 13 µM	

Structure (SMILES)	Potency	activity change, negative = growth inhibition
O=C(Nc1ccc(C(F)(F)F)cc1)C1(c2cccs2)CCOCC1	active: 23.1 µM	
CC(=O)c1ccc(Nc2nc(-c3ccccc3)nc3ccccc23)cc1	active: 20.6 µM	
O=C(NC1CCCc2ccccc21)C1CCCC1 (stereo unspecified)	inactive	
CCC1CN(C(=O)N2CCC(C(=O)NCc3ccccc3F)CC2)c2ccccc2O1 (stereo unspecified)	active: 14.6 µM	
Cc1ccc(NCc2ccncc2)c(Br)c1	inconclusive [inhibitor, single point]	
OCC1=C[C@@H](O)[C@@H]2C=CO[C@@H](O[C@@H]3O[C@H](CO)[C@@H](O)[C@H](O)[C@H]3O)[C@H]12	inactive	
CN1C(=O)N(CC(=O)Nc2ccc(C(F)(F)F)cc2)C(=O)C12CCCCC2	inconclusive [inhibitor, single point]	
CN(C)S(=O)(=O)c1ccc(N2CCCC2)c(C(=O)Nc2ccccc2F)c1		inconclusive: -31.7% [inhibitor]
Cn1c(NCCc2ccncc2)nc2cc(-c3cccc(C(F)(F)F)c3)sc2c1=O	inconclusive [inhibitor, single point]	
CC(C)CN1C(=O)C(=O)N(CC(=O)Nc2cc(Cl)ccc2Oc2ccccc2)C1=O	inactive	
CCOc1ccc(C(=O)Nc2ccc(N3CCN(C)CC3)cc2)cc1[N+](=O)[O-]	inactive	
COc1ccc(CNC(=O)CN(C(=O)CCC(=O)Nc2ccccn2)c2cc(C)ccc2C)cc1	inconclusive [inhibitor, partial curve, poor fit]	
C[C@H]1CN([C@@H](C)CO)C(=O)c2cc(Br)cnc2O[C@H]1CN(C)C(=O)c1ccc2c(c1)OCO2	inactive	
CC1CCCN(c2ncnc3c2nnn3C)C1 (stereo unspecified)	inactive	
Cc1sc2ncn(CC(=O)N3CCN(c4ccccc4F)CC3)c(=O)c2c1S(=O)(=O)N1CCOCC1	inconclusive [inhibitor, partial curve]	
Cc1c(Cc2ccc3c(c2)OCO3)sc(NC(=O)c2cccc3ccccc23)c1C(N)=O	inconclusive [inhibitor, single point]	
ICC[n+]1csc2ccccc21	inconclusive [inhibitor, full curve, poor fit]	
CN(c1ccc(O)cc1)S(=O)(=O)c1ccc2ccccc2c1	inconclusive [inhibitor, single point]	
COC(=O)C[C@H]1C[C@@H]2c3cc(NC(=O)CN(C)C)ccc3O[C@@H]2[C@H](CO)O1		inconclusive: -34.1% [inhibitor]
CCCCCCn1c(=O)n2n(c1=O)C[C@]1(OC(=O)Nc3cccs3)CN(S(=O)(=O)c3ccc(C)cc3)C[C@]1(O)C2	active: 13 µM	
Cc1cc(C(C)(C)C)cc(S(=O)(=O)Nc2cccc(C(=O)O)c2)c1C	inactive	
Cc1cccc(NC(=S)N/N=C/c2cccn2Cc2ccc(F)cc2)c1	active: 16.4 µM	
COC[C@H](NS(=O)(=O)c1ccc(Br)cc1F)[C@@H](O)c1ccccc1	inconclusive [inhibitor, single point]	
c1ccc(CNc2ncncc2-c2ccc3c(c2)OCO3)cc1	inconclusive [inhibitor, single point]	

Structure (SMILES)	Potency	activity change, negative = growth inhibition
CC(=O)c1cccc(-c2ccnc3c2CC(C(=O)Nc2cccc(NS(C)(=O)=O)c2)O3)c1 (stereo unspecified)	active: 9.2 µM	
Cc1ccc(S(=O)(=O)CCC(=O)Nc2ccccc2N2CCCC2)cc1	inactive	
CCN(CC)c1ncnc2c1cnn2Cc1ccc(Cl)cc1	inconclusive [inhibitor, single point]	
CN(CC(=O)Nc1cccc(F)c1)C(=O)c1cccc(S(=O)(=O)N2CCN(c3ccccc3)CC2)c1	inconclusive [inhibitor, single point]	
CCOC(=O)C1CC(=O)c2ccccc2C1c1ccccc1 (stereo unspecified)	inconclusive [inhibitor, partial curve]	
COc1ccc(CNC(=O)Cc2ccc(NC(=O)N3CCCCc4ccccc43)cc2)cc1	active: 23.1 µM	
Cc1ccc(NC(=O)c2c(C)oc3ncnc(N4CCCCC4)c23)c(C)c1	inconclusive [inhibitor, single point]	
COc1ccc(CCNC(=O)c2ccc(-c3ccc([N+](=O)[O-])cc3Cl)o2)cc1	inconclusive [inhibitor, single point]	
COc1ccccc1C1=CC(=O)C[C@H](c2ccc(Cl)cc2)C1	inconclusive [inhibitor, single point]	
Brc1ccccc1OCCCN1CCCCCC1	inconclusive [inhibitor, single point]	
CC1=CC(C)(C)N(C(=O)CN2C(=O)c3ccccc3C2=O)c2ccc(C)cc21	inactive	
N#Cc1nc(Cc2cccc3ccccc23)oc1NCc1ccc2c(c1)OCO2	inconclusive [inhibitor, partial curve]	
Cc1ccc(NC(=S)N2CCN(C(=O)c3ccccc3)CC2)c(C)c1	inconclusive [inhibitor, single point]	
O=C(/C=C/Nc1ccccc1F)c1ccc(Br)cc1	inactive	
COc1cc2c(cc1OC)-c1cc(OCc3ccccc3Cl)nc(=O)n1CC2	inconclusive [inhibitor, partial curve, poor fit]	
O=C1NC[C@H](Cc2ccc(O)cc2)N(C[C@H]2CCCN2C[C@H](Cc2ccccc2)N2C[C@H](Cc3ccccc3)N(CCc3ccccc3)C(=O)C2=O)C1=O	inconclusive [inhibitor, single point]	
CCCSc1nnc2n(C)c(=O)c3c4c(sc3n12)CCC4	inconclusive [inhibitor, partial curve]	
Cc1ccc2cc3c(nc2c1)N(Cc1ccco1)CC3	inconclusive [inhibitor, single point]	
CC1(C(=O)NC2CCCCC2)CCC(=O)N1CCOc1ccccc1 (stereo unspecified)	inactive	
Cc1ccc(C)c(Cn2nnc3c(=O)[nH]c(C4CCCN(C(=O)C5CCCCC5)C4)nc32)c1 (stereo unspecified)	inconclusive [inhibitor, single point]	
CCc1nc(C)cc(N)c1OCc1ccccc1	inactive	
CCOC(=O)N1CCN(C(=O)Cn2nc(C)c3sc4ccccc4c3c2=O)CC1	inconclusive [inhibitor, single point]	
COc1ccc(C2CC(c3ccccc3Cl)=NN2c2ccc(S(N)(=O)=O)cc2)cc1 (stereo unspecified)	inconclusive [inhibitor, single point]	
